# The other results are listed elsewhere or left out.
# B1: Surfactant Protein D (Human); Neck + Carbohydrate Recognition Domain (NCRD) (Homo sapiens) (protein)
# chain: MLLFLLSALVLLTQPLGYLEAEMKTYSHRTMPSACTLVMCSSVESGLPGRDRDGREGPRGEKGDPGLPGAAGQAGMPGQAGPVGPKGDNGSVGEPGPKGDTGPSGPPGPPGVPGPAGREGALGKQGNIGPQGKPGPKGEAGPKGEVGAPGMQGSAGARGLAGPKGERGVPGERGVPGNTGAAGSAGAMGPQGSPGARGPPGLKGDKGIPGDKGAKGESGLPDVASLRQQVEALQGQVQHLQAAFSQYKKVELFPNGQSVGEKIFKTAQFVKPFTEAQLLCTQAGGQLASPRSAAENAALQQLVVAKNEAAFLSMTDSKTEGKFTYPTGESLVYSNWAPGEPNDNGGSEDCVEIFTNGKWNDRACGEKRLVVCEF
# Key:
# Assay in all cases: glycan array binding signal (z-score within array); higher = stronger binding
# Conditions in all cases: glycan notation: IUPAC condensed, linker removed; mutation: D325N
# Fuc(a1-2)Gal = molecular target: Fuc(a1-2)Gal
# Procedure, shortened: (§1)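 Columns mapping to the same glycan were averaged after glycan names were converted to IUPAC-condensed notation. The data come from 3228 arrays in the Consortium for Functional Glycomics database, limited to those with an available protein sequence. Binding is reported as a within-array Z-score averaged across arrays of one protein sequence and across linkers.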
# Fuc(a1-2)Gal(b1-3)GalNAc = molecular target: Fuc(a1-2)Gal(b1-3)GalNAc
# Procedure, shortened: as §1
# [1] = molecular target: Fuc(a1-2)Gal(b1-3)GalNAc(b1-3)Gal
# Procedure, shortened: as §1
# [2] = molecular target: Fuc(a1-2)Gal(b1-3)GalNAc(b1-3)Gal(a1-4)Gal(b1-4)Glc
# Procedure, shortened: as §1
# [3] = molecular target: Fuc(a1-2)Gal(b1-3)GalNAc(b1-4)[Neu5Ac(a2-3)]Gal(b1-4)Glc
# Procedure, shortened: as §1
# Fuc(a1-2)Gal(b1-3)GlcNAc = molecular target: Fuc(a1-2)Gal(b1-3)GlcNAc
# Procedure, shortened: as §1
# [4] = molecular target: Fuc(a1-2)Gal(b1-3)GlcNAc(b1-3)Gal(b1-4)Glc
# Procedure, shortened: as §1
# [5] = molecular target: Fuc(a1-2)Gal(b1-3)[Fuc(a1-4)]GlcNAc
# Procedure, shortened: as §1
# Fuc(a1-2)Gal(b1-4)Glc = molecular target: Fuc(a1-2)Gal(b1-4)Glc
# Procedure, shortened: as §1
# Fuc(a1-2)Gal(b1-4)Glc6S = molecular target: Fuc(a1-2)Gal(b1-4)Glc6S
# Procedure, shortened: as §1
# Fuc(a1-2)Gal(b1-4)GlcNAc = molecular target: Fuc(a1-2)Gal(b1-4)GlcNAc
# Procedure, shortened: as §1
# [6] = molecular target: Fuc(a1-2)Gal(b1-4)GlcNAc(b1-3)Gal(b1-4)GlcNAc
# Procedure, shortened: as §1
# [7] = molecular target: Fuc(a1-2)Gal(b1-4)GlcNAc(b1-3)Gal(b1-4)GlcNAc(b1-3)Gal(b1-4)GlcNAc
# Procedure, shortened: as §1
# [8] = molecular target: Fuc(a1-2)Gal(b1-4)GlcNAc6S
# Procedure, shortened: as §1
# [9] = molecular target: Fuc(a1-2)Gal(b1-4)[Fuc(a1-3)]GlcNAc
# Procedure, shortened: as §1
# [10] = molecular target: Fuc(a1-2)Gal(b1-4)[Fuc(a1-3)]GlcNAc(b1-3)Gal(b1-4)[Fuc(a1-3)]GlcNAc
# Procedure, shortened: as §1
# [11] = molecular target: Fuc(a1-2)Gal(b1-4)[Fuc(a1-3)]GlcNAc(b1-3)Gal(b1-4)[Fuc(a1-3)]GlcNAc(b1-3)Gal(b1-4)[Fuc(a1-3)]GlcNAc
# Procedure, shortened: as §1
# Fuc(a1-2)Gal6S(b1-4)Glc = molecular target: Fuc(a1-2)Gal6S(b1-4)Glc
# Procedure, shortened: as §1
# [12] = molecular target: Fuc(a1-2)Gal6S(b1-4)Glc6S
# Procedure, shortened: as §1
# [13] = molecular target: Fuc(a1-2)Gal6S(b1-4)GlcNAc
# Procedure, shortened: as §1
# Fuc(a1-2)[Gal(a1-3)]Gal = molecular target: Fuc(a1-2)[Gal(a1-3)]Gal
# Procedure, shortened: as §1
# [14] = molecular target: Fuc(a1-2)[Gal(a1-3)]Gal(b1-3)GlcNAc
# Procedure, shortened: as §1
# [15] = molecular target: Fuc(a1-2)[Gal(a1-3)]Gal(b1-4)Glc
# Procedure, shortened: as §1
# [16] = molecular target: Fuc(a1-2)[Gal(a1-3)]Gal(b1-4)GlcNAc
# Procedure, shortened: as §1
# [17] = molecular target: Fuc(a1-2)[Gal(a1-3)]Gal(b1-4)[Fuc(a1-3)]GlcNAc
# Procedure, shortened: as §1
# [18] = molecular target: Fuc(a1-2)[Gal(a1-4)]Gal(b1-4)GlcNAc
# Procedure, shortened: as §1
# [19] = molecular target: Fuc(a1-2)[GalNAc(a1-3)]Gal
# Procedure, shortened: as §1
# [20] = molecular target: Fuc(a1-2)[GalNAc(a1-3)]Gal(b1-3)GlcNAc
# Procedure, shortened: as §1
# [21] = molecular target: Fuc(a1-2)[GalNAc(a1-3)]Gal(b1-4)Glc
# Procedure, shortened: as §1
# [22] = molecular target: Fuc(a1-2)[GalNAc(a1-3)]Gal(b1-4)GlcNAc
# Procedure, shortened: as §1
# [23] = molecular target: Fuc(a1-2)[GalNAc(a1-3)]Gal(b1-4)[Fuc(a1-3)]GlcNAc
# Procedure, shortened: as §1
# [24] = molecular target: Fuc(a1-2)[GalNAc(a1-4)]Gal(b1-4)GlcNAc
# Procedure, shortened: as §1
# [25] = molecular target: Fuc(a1-2)[GalNAc(b1-3)]Gal
# Procedure, shortened: as §1
# Fuc(a1-3)GlcNAc = molecular target: Fuc(a1-3)GlcNAc
# Procedure, shortened: as §1
# [26] = molecular target: Fuc(a1-3)[Gal(b1-4)]Glc6S
# Procedure, shortened: as §1
# [27] = molecular target: Fuc(a1-3)[Gal(b1-4)]GlcNAc
# Procedure, shortened: as §1
# [28] = molecular target: Fuc(a1-3)[Gal(b1-4)]GlcNAc(b1-2)Man(a1-3)[Fuc(a1-3)[Gal(b1-4)]GlcNAc(b1-2)Man(a1-6)]Man(b1-4)GlcNAc(b1-4)GlcNAc
# Procedure, shortened: as §1
binder,measurement,setting,value
B1,glycan array binding signal (z-score),Fuc(a1-2)Gal,-0.136
same,glycan array binding signal (z-score),Fuc(a1-2)Gal(b1-3)GalNAc,-0.104
same,glycan array binding signal (z-score),[1],-0.126
same,glycan array binding signal (z-score),[2],-0.138
same,glycan array binding signal (z-score),[3],-0.128
same,glycan array binding signal (z-score),Fuc(a1-2)Gal(b1-3)GlcNAc,-0.143
same,glycan array binding signal (z-score),[4],-0.138
same,glycan array binding signal (z-score),[5],-0.155
same,glycan array binding signal (z-score),Fuc(a1-2)Gal(b1-4)Glc,-0.138
same,glycan array binding signal (z-score),Fuc(a1-2)Gal(b1-4)Glc6S,-0.151
same,glycan array binding signal (z-score),Fuc(a1-2)Gal(b1-4)GlcNAc,-0.147
same,glycan array binding signal (z-score),[6],-0.137
same,glycan array binding signal (z-score),[7],-0.129
same,glycan array binding signal (z-score),[8],-0.139
same,glycan array binding signal (z-score),[9],-0.149
same,glycan array binding signal (z-score),[10],-0.144
same,glycan array binding signal (z-score),[11],-0.13
same,glycan array binding signal (z-score),Fuc(a1-2)Gal6S(b1-4)Glc,-0.155
same,glycan array binding signal (z-score),[12],-0.125
same,glycan array binding signal (z-score),[13],-0.13
same,glycan array binding signal (z-score),Fuc(a1-2)[Gal(a1-3)]Gal,-0.136
same,glycan array binding signal (z-score),[14],-0.124
same,glycan array binding signal (z-score),[15],-0.155
same,glycan array binding signal (z-score),[16],-0.128
same,glycan array binding signal (z-score),[17],-0.1
same,glycan array binding signal (z-score),[18],-0.137
same,glycan array binding signal (z-score),[19],-0.135
same,glycan array binding signal (z-score),[20],-0.155
same,glycan array binding signal (z-score),[21],-0.132
same,glycan array binding signal (z-score),[22],-0.091
same,glycan array binding signal (z-score),[23],-0.147
same,glycan array binding signal (z-score),[24],-0.128
same,glycan array binding signal (z-score),[25],-0.099
same,glycan array binding signal (z-score),Fuc(a1-3)GlcNAc,-0.098
same,glycan array binding signal (z-score),[26],-0.143
same,glycan array binding signal (z-score),[27],-0.138
same,glycan array binding signal (z-score),[28],-0.127
